Among all 310,000 compounds or so, about 2,200 (0.71%) showed an effect of 50% or more. Effects have a minus sign here. The list shows a part of the results.

Sequence of human ether-à-go-go-related gene (hERG) potassium channel (Q12809 whole entry, looked up): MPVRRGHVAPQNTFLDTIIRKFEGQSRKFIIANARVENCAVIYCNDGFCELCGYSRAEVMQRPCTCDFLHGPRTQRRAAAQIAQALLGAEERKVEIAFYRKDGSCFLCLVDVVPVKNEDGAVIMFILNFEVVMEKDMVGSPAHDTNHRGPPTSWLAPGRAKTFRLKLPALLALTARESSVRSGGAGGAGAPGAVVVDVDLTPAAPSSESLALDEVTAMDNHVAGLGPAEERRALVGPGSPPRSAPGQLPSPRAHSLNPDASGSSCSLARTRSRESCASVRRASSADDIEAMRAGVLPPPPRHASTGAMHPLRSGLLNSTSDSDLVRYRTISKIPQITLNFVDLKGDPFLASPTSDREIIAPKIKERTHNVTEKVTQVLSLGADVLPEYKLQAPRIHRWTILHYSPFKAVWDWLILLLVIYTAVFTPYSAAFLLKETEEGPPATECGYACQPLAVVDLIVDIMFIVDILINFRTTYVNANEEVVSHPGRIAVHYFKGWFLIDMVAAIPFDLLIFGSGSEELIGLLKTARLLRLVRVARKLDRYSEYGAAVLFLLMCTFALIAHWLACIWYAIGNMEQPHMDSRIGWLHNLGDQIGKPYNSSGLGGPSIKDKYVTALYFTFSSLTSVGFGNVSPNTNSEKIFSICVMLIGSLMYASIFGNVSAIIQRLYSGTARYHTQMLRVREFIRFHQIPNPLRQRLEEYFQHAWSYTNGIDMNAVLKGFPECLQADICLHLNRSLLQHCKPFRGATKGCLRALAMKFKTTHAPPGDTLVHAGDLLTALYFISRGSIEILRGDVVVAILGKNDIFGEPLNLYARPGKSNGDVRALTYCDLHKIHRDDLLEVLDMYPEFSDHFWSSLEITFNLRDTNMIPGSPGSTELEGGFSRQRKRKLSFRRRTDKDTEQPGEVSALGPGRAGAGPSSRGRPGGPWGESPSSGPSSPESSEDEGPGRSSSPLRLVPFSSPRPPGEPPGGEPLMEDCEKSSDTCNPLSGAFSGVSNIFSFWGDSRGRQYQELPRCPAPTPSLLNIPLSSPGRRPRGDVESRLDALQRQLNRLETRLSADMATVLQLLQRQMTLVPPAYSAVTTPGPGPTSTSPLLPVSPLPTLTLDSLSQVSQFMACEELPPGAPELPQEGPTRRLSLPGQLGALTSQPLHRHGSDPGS

The assay concerns the target human ether-à-go-go-related gene (hERG) potassium channel (human, UniProt Q12809). Briefly: primary screen, population patch clamp on CHO cells stably expressing hERG.
With `CC(C)OCCCNS(=O)(=O)c1ccc2c(c1)OCCO2`, the “hERG current change (%, negative = inhibition) at 1uM” value is 7.24%.

For the molecule `Cc1nc2cc(-c3cccc(F)c3)nn2c(C)c1CCC(=O)N1CCN(c2ccccn2)CC1`, the “hERG current change (%, negative = inhibition) at 1uM” value is on record as 5.93%.

With `CCOc1ccc(NC(=S)N(CCOC)C2CCN(C(C)C)CC2)cc1`, the “hERG current change (%, negative = inhibition) at 1uM” value turned out to be 3.44%.

As for `Cc1cccc(NC(=O)CN2C(=S)NC(C)(C)CC2C)c1` (stereo not drawn), the “hERG current change (%, negative = inhibition) at 1uM” value turned out to be 7.29%.

In the case of `O=c1[nH]c(=S)n(CCC2=CCCCC2)c(O)c1C=NCc1cccnc1`, the “hERG current change (%, negative = inhibition) at 1uM” value is listed as -4.07%.

Take `CCOC(=O)c1c(C)nn(Cc2ccccc2)c1N`: the “hERG current change (%, negative = inhibition) at 1uM” value is listed as 8.84%.

With `O=C(Nc1ccc(N2CCOCC2)c(Cl)c1)c1ccc(Cl)cc1`, the “hERG current change (%, negative = inhibition) at 1uM” value is given as -1.03%.

`COCCn1c(SCC(=O)Nc2cccc(F)c2)nc2c([nH]c3ccccc32)c1=O`: the “hERG current change (%, negative = inhibition) at 1uM” value was 21.8%.

Regarding `Cc1ccc(-n2c(-c3ccccc3)cc(/C=N/NC(=O)CC#N)c2-c2ccccc2)cc1`, the “hERG current change (%, negative = inhibition) at 1uM” value is 7.93%.

Consider `CCCC(=O)Nc1ccccc1N1CCN(C(=O)C(C)C)CC1`, for which the “hERG current change (%, negative = inhibition) at 1uM” value was determined as 7.84%.

As for `COc1ccc(NC(C)=O)cc1NC(=O)CN1CCN(CC(=O)Nc2ccc(Cl)cc2)CC1`, the “hERG current change (%, negative = inhibition) at 1uM” value is -34.7%.

As for `Cc1ccc(C(=O)COC(=O)c2ccco2)cc1C`, the “hERG current change (%, negative = inhibition) at 1uM” value came out at 10.4%.

On to `Cc1ccc(N2C(=O)CC3(CCCC3)CC2=O)cc1`, for which the “hERG current change (%, negative = inhibition) at 1uM” value is listed as 11.5%.

With `Nc1nc(-c2ccco2)nc(N2CCCCC2)n1`, the “hERG current change (%, negative = inhibition) at 1uM” value is -1.74%.

On to `COc1cc2c(cc1OC)C(c1ccccc1OC(C)C)CC(=O)N2` (stereo not drawn), for which the “hERG current change (%, negative = inhibition) at 1uM” value stood at 9.37%.

Consider `c1cncc(-c2nnc3n2N=C(c2cccs2)CS3)c1`, for which the “hERG current change (%, negative = inhibition) at 1uM” value is recorded as -4.88%.

For the molecule `CC(=O)OCCNc1cc(SCc2ccco2)c2nonc2c1[N+](=O)[O-]`, the “hERG current change (%, negative = inhibition) at 1uM” value came out at 3.43%.

For the molecule `CCOc1cc([N+](=O)[O-])cc(/C=C2/NC(=O)N(Cc3ccccc3F)C2=O)c1O`, the “hERG current change (%, negative = inhibition) at 1uM” value amounted to 4.45%.

Consider `CCOC(=O)C(C)Sc1ccc2nnc(CCNS(=O)(=O)c3ccccc3)n2n1` (stereo not drawn), for which the “hERG current change (%, negative = inhibition) at 1uM” value was found to be 9.82%.

For `CN(C)S(=O)(=O)N1CCC(Oc2ccc(C(=O)NC3CCOC(C)(C)C3)cc2)CC1` (stereo not drawn), the “hERG current change (%, negative = inhibition) at 1uM” value turned out to be 11.8%.

In the case of `CC(C)[C@H](NC(=O)c1cccc(S(=O)(=O)N2CCOCC2)c1)C(=O)Nc1nccs1`, the “hERG current change (%, negative = inhibition) at 1uM” value is reported as 7.18%.

Turning to `CC(=O)c1cc2c(cc1NC(=O)Cn1nc(-c3ccc(C)cc3)ccc1=O)OCO2`, the “hERG current change (%, negative = inhibition) at 1uM” value is recorded as 0.773%.

`Cc1nc(NCCOc2ccccc2)sc1C(=O)Nc1ccccc1`: the “hERG current change (%, negative = inhibition) at 1uM” value was 13.9%.

For `O=[N+]([O-])c1cccc(CNc2ccc3c(c2)CCC3)c1`, the “hERG current change (%, negative = inhibition) at 1uM” value was determined as 4.27%.

Turning to `Cc1ccc(OC(=O)C23CC4CC(CC(C4)C2)C3)c(C)n1`, the “hERG current change (%, negative = inhibition) at 1uM” value came to 12.1%.

On to `O=C1CN(C(=O)c2ccccc2)C(c2ccccc2)c2cc(Cl)ccc2N1` (stereo not drawn), for which the “hERG current change (%, negative = inhibition) at 1uM” value is recorded as -5.25%.

Consider `Cc1c(C(=O)NCc2ccccc2CN2CCCC2)oc2c(F)cccc12`, for which the “hERG current change (%, negative = inhibition) at 1uM” value was -1.75%.

Take `Cc1ccc(NC(=O)c2ccc(CN3CC(=O)N4CCCCC4C3=O)cc2)c(C)c1` (stereo not drawn): the “hERG current change (%, negative = inhibition) at 1uM” value amounted to 4.54%.

Turning to `Cc1ccc(NC(=O)Cn2nnc(C(=O)NCc3cccs3)c2N)c(C)c1`, the “hERG current change (%, negative = inhibition) at 1uM” value was found to be 15.3%.

For the molecule `CCCCOc1ccc(OCCCN2CCOCC2)cc1.Cl`, the “hERG current change (%, negative = inhibition) at 1uM” value is on record as -0.223%.

As to `COc1cc(/C=C(\C#N)C(=O)N2CCOCC2)cc(Br)c1O`, the “hERG current change (%, negative = inhibition) at 1uM” value is listed as 8.38%.

On to `Oc1ccc(/C=N/N(c2ccccc2)c2ccccc2)cc1O`, for which the “hERG current change (%, negative = inhibition) at 1uM” value is 11.5%.

As to `Oc1[nH]c2ccccc2c1N=NC(=S)N1CCOCC1`, the “hERG current change (%, negative = inhibition) at 1uM” value turned out to be 9.53%.

In the case of `O=C(c1nn2c(C(F)(F)F)cc(-c3cccs3)nc2c1Cl)N1CCCc2ccccc21`, the “hERG current change (%, negative = inhibition) at 1uM” value is given as 14.2%.

Take `Cc1ccc(N2C(=O)[C@@H]3C(C(=O)CN4C(=O)c5ccccc5C4=O)=NN[C@@H]3C2=O)c(C)c1`: the “hERG current change (%, negative = inhibition) at 1uM” value came to 14.2%.

As to `COc1cccc(OC)c1C(=O)NC(=S)N1CCN(c2ccc(C(F)(F)F)cc2[N+](=O)[O-])CC1`, the “hERG current change (%, negative = inhibition) at 1uM” value was -9.25%.

With `Cc1cc(C)n(-c2ccc(C(=O)Nc3ccc(C)c(S(=O)(=O)N(C)C)c3)cc2)n1`, the “hERG current change (%, negative = inhibition) at 1uM” value worked out at 1.12%.

`Cc1c(NC(=O)C(C)OC(=O)c2c3c(nc4ccccc24)CCC3)c(=O)n(-c2ccccc2)n1C` (stereo not drawn): the “hERG current change (%, negative = inhibition) at 1uM” value is recorded as -7.3%.

With `Cc1nc(N2CCN(c3ccccn3)CC2)c2c(C)c(C(=O)Nc3ccc(Cl)cc3)sc2n1`, the “hERG current change (%, negative = inhibition) at 1uM” value is on record as 13.4%.

With `c1ccc2c(SCc3cn4cccnc4n3)ncnc2c1`, the “hERG current change (%, negative = inhibition) at 1uM” value is listed as 7.65%.

For `CCn1c(SCC(=O)N2CCCc3ccccc32)nnc1-c1ccco1`, the “hERG current change (%, negative = inhibition) at 1uM” value is 3.48%.

Consider `Cc1ccc(S(=O)(=O)N2CCCC(C(=O)Nc3cccnc3)C2)cc1` (stereo not drawn), for which the “hERG current change (%, negative = inhibition) at 1uM” value is reported as -6.51%.

Regarding `CN(C)C(CNC(=O)C1CCN(S(=O)(=O)c2cccc(Cl)c2Cl)CC1)c1ccccc1` (stereo not drawn), the “hERG current change (%, negative = inhibition) at 1uM” value was -1.84%.

On to `CCN1CCN(c2ccc(S(=O)(=O)N3CCCCC3)cc2NC(=O)c2ccc([N+](=O)[O-])s2)CC1`, for which the “hERG current change (%, negative = inhibition) at 1uM” value is listed as -13.8%.

Consider `CCc1nnc(NC(=O)Cc2sc(C)nc2-c2ccc(C)cc2)s1`, for which the “hERG current change (%, negative = inhibition) at 1uM” value is on record as 11.5%.

Consider `O=C(NCCCN1CCN(Cc2ccccc2)CC1)C1CCN(S(=O)(=O)N2CCC3(CC2)OCCO3)CC1`, for which the “hERG current change (%, negative = inhibition) at 1uM” value worked out at 8.57%.

As for `CC(=O)Nc1nc2ccc(C(=O)NCCOC(=O)C3CCCCC3)cc2s1`, the “hERG current change (%, negative = inhibition) at 1uM” value is listed as 3.91%.

`CCOc1cc(/C=C2/C(=O)ON=C2C)cc(Br)c1O`: the “hERG current change (%, negative = inhibition) at 1uM” value is 16.2%.

With `Cc1ccc(S(=O)(=O)NN)c(C)c1N1CCCC1=O`, the “hERG current change (%, negative = inhibition) at 1uM” value is on record as 7.47%.

On to `Cc1ccc(S(=O)(=O)N(CC(=O)NCc2ccco2)Cc2ccc(F)cc2)cc1`, for which the “hERG current change (%, negative = inhibition) at 1uM” value was -13.6%.

As to `CCOc1ccccc1N1CCN(C(=O)c2c(-c3c(F)cccc3Cl)noc2C)CC1`, the “hERG current change (%, negative = inhibition) at 1uM” value turned out to be 13.7%.

`COc1ccc(/C=N/NC(=O)Cn2nc([N+](=O)[O-])cc2C)c(OC)c1OC`: the “hERG current change (%, negative = inhibition) at 1uM” value is on record as 15.5%.

For the molecule `CCOC(=O)c1c(C)n(COCCO)c2ccc(O)cc12`, the “hERG current change (%, negative = inhibition) at 1uM” value stood at 15%.

In the case of `O=C(CSc1nc2ccccc2n1CCc1ccccc1)NC1CCS(=O)(=O)C1` (stereo not drawn), the “hERG current change (%, negative = inhibition) at 1uM” value worked out at 6.7%.
